Measurements reported in patent publication US20220089695A1 (NEW YORK UNIVERSITY, published 2022).

Molecular target: SARS-CoV-2 Spike (S) protein, recombinant, construct not stated at the place (SARS-CoV-2)

Binder | Kd | koff
G11-Fc (Fc fusion) QVQLVESGGGLVQAGDSVRLSCTVSGRSITMYTMDWWRQAPGKGREFVATITSSGKPNYANSVKGRATVDRDNSKNTLYLQMNSLRAEDTAVYSCHALLSTHSELGPFYDYWGQGTLVTVSS[human IgG1 Fc cut from this listing] | 0.782 nM | 0.000265 s⁻¹
A8-Fc (Fc fusion) QVQLVESGGGLVQAGDSLRLSCAASGRDSSRDAMAWFRQAPGKQLELVASITAGGHTNYADSVEGRFTISRDNAKNTVYLQMNALEPEDTAVYRCFADVYGSDRPSWGRGTLVTVSS[human IgG1 Fc cut from this listing] | 0.973 nM | 0.000201 s⁻¹
A8-G11-Fc bispecific antibody (bispecific antibody) QVQLVESGGGLVQAGDSLRLSCAASGRDSSRDAMAWFRQAPGKQLELVASITAGGHTNYADSVEGRFTISRDNAKNTVYLQMNALEPEDTAVYRCFADVYGSDRPSWGRGTLVTVSSGGGGSGGGGSGGGGSQVQLVESGGGLVQAGDSVRLSCTVSGRSITMYTMDWWRQAPGKGREFVATITSSGKPNYANSVKGRATVDRDNSKNTLYLQMNSLRAEDTAVYSCHALLSTHSELGPFYDYWGQGTLVTVSS[human IgG1 Fc cut from this listing] | 0.18 nM | 4.16e-05 s⁻¹
